# From PubChem BioAssay AID686970 (National Center for Advancing Translational Sciences (NCATS), 2013)
# The whole screen tested about 360,000 compounds, of which about 6,000 (1.7%) were called active. The inconclusive results got no clear call from the source; some entries with a clear call stand among them for comparison. The call rests on the fitted dose curve; in most records, active means well fitted cell-killing curve with a large enough effect; inconclusive means small, poorly fitted or top-dose-only effect, or effect the other way; inactive means flat fitted curve, though single readings scatter. No potency is given beside an inconclusive call; the fits are too rough.
# Assay: qHTS for induction of synthetic lethality in tumor cells producing 2HG: qHTS for the HT-1080-NT fibrosarcoma cell line;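 further: NT is the 2HG producing partner of a matched IDH1 knockdown line; nearly all actives have a fitted effect of over 55% in size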;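 on activity, negative = less viability: 0% = DMSO-treated cells and -100% = media-only wells without cells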
# Settings: HT-1080-NT fibrosarcoma viability, CellTiter-Glo ATP luminescence, 48 h; activity, negative = less viability: at 46.1 µM (top of the series) unless noted
# In short: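 750 cells/well, RPMI + 5% FBS; 2 h settle, compound pin-transfer, 48 h at 37 degrees C. CellTiter-Glo 10 min RT, luminescence. Normalized to DMSO and media-only wells.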
# Potency means the concentration at half of the fitted maximal effect; tags describe the fitted curve by direction and shape.
Compound,"activity, negative = less viability",Potency
Cc1ccc(C)c(OCc2cc(C(=O)N3C[C@@H](C)O[C@@H](C)C3)no2)c1,inactive: -2.46%,
O=C(N/N=C/c1ccccc1)c1n[nH]c2c1CCCC2,,"inconclusive [cytotoxic, single point]"
O=S(=O)(c1cccc2ccccc12)N1CCC2CC1c1cc(-c3ccc4c(c3)OCO4)ccc12 (stereo unspecified),,"inconclusive [rising, single point]"
CNC(=O)[C@H]1O[C@@H](n2cnc3c(NCc4cccc(I)c4)nc(Cl)nc32)[C@H](O)[C@@H]1O,inactive: 22.8%,
CSc1ccc(CN2CCC(C)(Oc3ccc(F)cc3)C2)cc1 (stereo unspecified),,"inconclusive [cytotoxic, single point]"
Oc1c(Br)cc(Br)cc1/C=N/c1nc2c(s1)CCCC2,,"inconclusive [cytotoxic, single point]"
NC(Cc1ccc(C(F)(F)F)cc1)c1csc(NC(=O)NCCc2ccccc2)n1 (stereo unspecified),,active: 23.1 µM
O=C(CSCc1ccc(Cl)cc1)Nc1cc([N+](=O)[O-])ccc1O,,"inconclusive [cytotoxic, full curve, poor fit]"
COC(CNC(=O)c1ccc2c(c1)ncn2-c1cc(C)cc(C)c1)OC,,"inconclusive [rising, partial curve]"
CC1(C)Cc2c(ccc3ccccc23)C(c2cc3ccccc3oc2=O)=N1,,"inconclusive [cytotoxic, single point]"
COc1ccc(NC(NC(=O)c2ccc(OC)cc2)C(Cl)(Cl)Cl)cc1 (stereo unspecified),inactive: 4.07%,
Cc1ccc(N/N=C/c2ccncc2)cc1,,"inconclusive [cytotoxic, partial curve]"
CC(C)c1ccc2[nH]c(O)c(N=NC(=S)NCCc3ccccc3)c2c1,,"inconclusive [cytotoxic, single point]"
CC1CCCN(C(=O)CNS(=O)(=O)c2cccs2)C1 (stereo unspecified),inactive: 2.3%,
Cc1ccccc1C1C(C#N)=C2N=C(N)c3c(sc4c3CCCCC4)N2C2=C1C(=O)CCC2 (stereo unspecified),,"inconclusive [cytotoxic, partial curve]"
Cc1cccc(NC(=O)CSc2nc3ccccc3c(=O)n2C)c1,inactive: -28.7%,
NNC(=O)/C(=N/Nc1ccccc1)S(=O)(=O)c1ccc(Cl)cc1,,"inconclusive [cytotoxic, partial curve]"
O=C(NC(=S)N1CCc2ccccc21)c1ccccc1,inactive: -16%,
O=C(C1=C[C@H](C2CCCCC2)C[C@H](OCc2ccc(CO)cc2)O1)N1CCN(Cc2ccc3c(c2)OCO3)CC1,,"inconclusive [cytotoxic, single point]"
CC(C)CC(=O)C(=O)O,,"inconclusive [rising, single point]"
CC(=O)OCC1(C)CN(c2ccccc2)N(C(=O)c2ccc(C(C)(C)C)cc2)C1=O (stereo unspecified),,"inconclusive [cytotoxic, single point]"
COc1ccc(NC(=O)c2cn(CCC#N)nc2-c2cc3ccccc3o2)cc1,,"inconclusive [cytotoxic, single point]"
CCCCCN=C(N)N/N=C/c1c[nH]c2ccc(OC)cc12,,active: 2.91 µM
C[C@H](CO)N1C[C@H](C)[C@@H](CN(C)Cc2ccc3c(c2)OCO3)Oc2c(NC(=O)Cc3ccccc3)cccc2C1=O,,"inconclusive [cytotoxic, partial curve]"

Compound,"activity, negative = less viability",Potency
COc1ccc(NCc2nnc(SCc3ccc(Cl)cc3)n2-c2ccccc2)cc1,,"inconclusive [cytotoxic, single point]"
Cc1ccc(S(=O)(=O)n2nccc2-c2c(-c3ccccc3)noc2C)cc1,,"inconclusive [cytotoxic, single point]"
CC(C)N(C(=O)CN1C(=O)C(=O)c2ccccc21)c1ccccc1,inconclusive: -0.581% [cytotoxic],
CCOC(=O)c1cccc(Nc2nc(-c3cccnc3)nc3ccccc23)c1,,active: 20.6 µM
C=CCOc1ccccc1C(=O)/C=C1/C(=O)Nc2ccccc21,,"inconclusive [cytotoxic, partial curve]"
Cc1nnc(NC(=O)c2ccc3ccccc3c2)s1,,"inconclusive [rising, partial curve]"
COc1ccc(NC(=O)Cn2nnc(C(=O)NCc3cccc(OC)c3)c2N)cc1,,"inconclusive [cytotoxic, single point]"
COc1ccc(/C=N/NC(=O)c2ccn[nH]2)cc1COc1ccc([N+](=O)[O-])c(C)c1,,"inconclusive [cytotoxic, single point]"
CCc1ccc(CN(C)Cc2nc(-c3cccc(Cl)c3)no2)nc1,inactive: -3.2%,
CC1(C2CC2)NC(=O)N(CC(=O)Nc2ccc(OC(F)F)cc2)C1=O (stereo unspecified),inactive: 16.4%,
COc1cccc(/C=N/NC(=O)c2ccc([N+](=O)[O-])cc2Cl)c1O,,"inconclusive [cytotoxic, partial curve]"
CN(C)c1nc(NC(C)(C)C)nc(SCC(=O)Nc2ccccc2)n1,inactive: -21.1%,
Cc1nc2ccccn2c1/C(O)=C1\C(=O)C(=O)N(CCCn2ccnc2)C1c1ccncc1 (stereo unspecified),inactive: 0.0412%,
COc1ccc(-c2nc3ccccc3c(=O)n2O)cc1,,"inconclusive [cytotoxic, single point]"
COc1ccc(CNC(=O)COC(=O)c2cc(-c3ccc(Cl)s3)nc3ccccc23)cc1,,"inconclusive [cytotoxic, single point]"
Cc1cccc(C)c1C(O)c1ncc(-c2cccc(C(F)(F)F)c2)[nH]1 (stereo unspecified),,"inconclusive [cytotoxic, partial curve]"
FC(F)Sc1ccc(NC(=S)NC2CCCCC2)cc1,,"inconclusive [cytotoxic, single point]"
CC1CN(C(=O)Cn2c(=O)oc3ccccc32)CC(C)O1 (stereo unspecified),inactive: 9.18%,
Cc1cc2c(cc(C(=O)OC(C(=O)NCc3ccco3)C(C)C)n2C)o1 (stereo unspecified),inactive: -24.2%,
OC(COc1ccc2c(c1)CCC2)CN1CCN(c2cccc(Cl)c2)CC1 (stereo unspecified),,"inconclusive [cytotoxic, single point]"
Cc1cccc(/C=C2\Sc3ccc(C(=O)N4CCCCC4)cc3N(C)C2=O)c1,,active: 18.4 µM
Cc1cccc(Oc2cc(NC(=O)Cn3cnc([N+](=O)[O-])n3)cc([N+](=O)[O-])c2)c1,,"inconclusive [cytotoxic, single point]"
CCN(CC)CCOc1ccc(/C(=C(/Cl)c2ccccc2)c2ccccc2)cc1,,active: 18.4 µM
COc1ccc(-c2c[n+](CC(=O)N3c4ccccc4Sc4ccccc43)c3n2CCC3)cc1,,"inconclusive [cytotoxic, partial curve]"

Compound,"activity, negative = less viability",Potency
COCCCN1C(=O)c2ccc(C(=O)OCC(=O)N3CCN(c4ccccc4)CC3)cc2C1=O,inactive: 13.4%,
COCCNC(=O)C1(C)CCN(C(=O)c2ccc(OC)c(F)c2)C1 (stereo unspecified),inactive: 19.9%,
COc1oc(C(=O)NC2CCCCC2)c(-c2ccc(Cl)cc2)c1S(=O)(=O)c1ccccc1,,"inconclusive [cytotoxic, single point]"
O=C(NCCc1ccccc1)C1CCN(Cc2cccc3ccccc23)CC1,,"inconclusive [cytotoxic, single point]"
Cc1ccc(NC(=O)COc2ccc(/C(N)=N/O)cc2)cc1C,,"inconclusive [cytotoxic, single point]"
CCN(CC)S(=O)(=O)c1ccc(C)c(NC(=O)COC(=O)CCC(=O)c2cccs2)c1,inactive: -3.35%,
CN(C)CCNC(=O)C1(C)Cc2c(-c3cccc(C(F)(F)F)c3)ccnc2O1 (stereo unspecified),,"inconclusive [cytotoxic, single point]"
C[C@H]1CN([C@@H](C)CO)C(=O)CCCn2cc(nn2)CO[C@@H]1CN(C)C(=O)Cc1ccccc1,inactive: 10.4%,
Cc1ccccc1NC(=O)C1CCCN(C(=O)Nc2ccc(F)cc2)C1 (stereo unspecified),inactive: 6.51%,
O=C(Nc1cccc(-c2cccc(F)c2)c1)C1CCN(Cc2ccc(CO)o2)CC1,,"inconclusive [cytotoxic, single point]"
COc1cccc(-c2noc(C3CCCN(C(=O)c4ccc(F)cc4F)C3)n2)c1 (stereo unspecified),inactive: 2.12%,
CCOc1ccc(C(=O)C(C)OC(=O)c2nc(Cl)ccc2Cl)cc1 (stereo unspecified),inactive: 7.38%,
O=C(Nc1nnc(S(=O)(=O)N2CCCCC2)s1)c1cccc(Br)c1,inactive: -3.52%,
Cc1ccc2oc(=O)cc(CN3CCN(Cc4ccccc4)CC3)c2c1,inactive: -1.93%,
Oc1ccc(C[C@H]2CN([C@@H](Cc3ccc(O)cc3)CN3CCC[C@@H]3CN3C(=S)NC[C@@H]3Cc3ccccc3)C(=S)N2CC2CCCCCC2)cc1,,active: 11.6 µM
COCC(C)n1c(C)cc(C(=O)CN2c3cccc4cccc(c34)S2(=O)=O)c1C (stereo unspecified),inactive: -0.459%,
CN(C)CCNC(=O)c1ccc2c(=O)n(Cc3ccc(Cl)cc3)c(=S)[nH]c2c1,,active: 23.1 µM
CC(C)(C)[C@H]1C=C(C(=O)N2CCN(Cc3ccc4c(c3)OCO4)CC2)O[C@@H](OCc2ccc(CO)cc2)C1,inactive: -17.5%,
COc1ccc(CC2(CO)COc3ccccc3C2=O)cc1 (stereo unspecified),,"inconclusive [cytotoxic, partial curve]"
OCC1OC(n2cnc3c(NCc4ccco4)ncnc32)C(O)C1O (stereo unspecified),,active: 11.6 µM
COCCNc1nc(Nc2ccc(C)cc2C)c2sc(-c3ccccc3)cc2n1,,"inconclusive [cytotoxic, single point]"
CC(C)(C)c1ccc(C(=O)Nc2ccc(NC(=O)c3ccco3)cc2)cc1,,active: 10 µM
CCOc1ccc(CN2CCC(C(=O)Nc3cccc(-c4ccn[nH]4)c3)CC2)cc1Cl,,active: 18.4 µM
